From PubChem BioAssay AID1768 (National Center for Advancing Translational Sciences (NCATS), 2009)
“And” between values parts separate entries of the source, which are not always exact repeats. Equal entries are not always repeated. Among all 270,000 compounds or so, about 620 (0.23%) were called active. Inconclusive results, whose numbers are uncertain, are shown with a selection of clear calls. Calls come from the whole dose curve; as a rule, active = well fitted inhibition curve with a large enough effect in the polarisation, with a control signal flat (not every such curve was filed as active); inconclusive = small, poorly fitted or top-dose-only effect, or effect the other way, or a change in a side signal; inactive = no such curve, though single readings can be large or run the other way; the % refers to the polarisation. A potency beside an inconclusive call is a rough fit, not a confirmed value. A note “side channel” means that the fit belongs to a control or component signal, not to the main read-out.

target: Menin (Homo sapiens) (UniProt O00255); assay: qHTS Assay for Inhibitors Targeting the Menin-MLL Interaction in MLL Related Leukemias: Competition With Texas Red Labeled MLL-derived Mutant Peptide; settings: fluorescence polarization; series mostly up to 61.6 µM
Potency is the fitted concentration of half-maximal effect; tags give direction and shape of the fitted curve or compound fluorescence and quenching.

UniProt O00255, sequence (O00255 whole entry, looked up): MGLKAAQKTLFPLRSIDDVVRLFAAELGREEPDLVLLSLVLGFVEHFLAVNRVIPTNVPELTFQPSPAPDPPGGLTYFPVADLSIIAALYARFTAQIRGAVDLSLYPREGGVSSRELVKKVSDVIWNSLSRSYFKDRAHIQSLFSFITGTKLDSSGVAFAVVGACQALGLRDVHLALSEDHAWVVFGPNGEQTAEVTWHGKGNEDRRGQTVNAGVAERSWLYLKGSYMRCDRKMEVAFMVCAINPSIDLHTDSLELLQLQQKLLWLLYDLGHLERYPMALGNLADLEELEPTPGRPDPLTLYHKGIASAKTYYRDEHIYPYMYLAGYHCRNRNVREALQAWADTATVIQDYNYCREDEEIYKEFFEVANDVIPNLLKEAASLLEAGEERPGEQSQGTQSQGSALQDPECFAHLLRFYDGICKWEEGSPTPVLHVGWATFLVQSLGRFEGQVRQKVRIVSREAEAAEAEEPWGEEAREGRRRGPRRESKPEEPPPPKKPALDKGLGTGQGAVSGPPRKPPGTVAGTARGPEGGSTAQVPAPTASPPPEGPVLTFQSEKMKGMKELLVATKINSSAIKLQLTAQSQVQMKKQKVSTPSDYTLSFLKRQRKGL

SMILES | Potency
CCOC(=O)c1c(-c2ccsc2)csc1N | inconclusive: 35.5 µM [quencher, side channel, single point]
COCCNC(=S)N(CCc1c(C)[nH]c2ccc(C)cc12)Cc1cccnc1 | inactive
Fc1ccc(-c2ccc(Nc3cccc(F)c3)nn2)cc1 | inconclusive: 39.8 µM [inhibitor, single point]
C=CC[n+]1c(-c2ccc(C)cc2)csc1NNC(=O)Nc1ccccc1 | inconclusive: 17.8 µM [fluorescent, side channel, partial curve]
Cc1c(-c2cccc(Cl)c2)nc2ccccc2c1C(=O)OC/C(O)=C(\C#N)c1nc2ccccc2[nH]1 | inconclusive: 11.2 µM [quencher, partial curve]
CNC(=S)N(CCc1c(C)[nH]c2ccc(Cl)cc12)Cc1cc(OC)c(OC)c(OC)c1 | inconclusive: 10 µM [quencher, side channel, partial curve]
COc1cccc(/C=C(/C#N)c2ccc(Cl)cc2)c1OCc1cccc(C(=O)O)c1 | inconclusive: 7.94 µM [quencher, side channel, partial curve]
CCc1ccc2c(c1)cc(CN(C(=S)Nc1ccc(Cl)cc1)C1CC1)c1nnnn12 | inconclusive: 28.2 µM [inhibitor, single point]
COc1ccc(N=Cc2nc(-c3ccco3)oc2O)cc1 | inconclusive: 25.1 µM [quencher, side channel, single point]
COCCn1c(SCC(=O)/C=C2\N(C)c3ccccc3C2(C)C)nnc1-c1ccncc1 | inconclusive: 35.5 µM [fluorescent, side channel, single point]
CC(=O)Nc1ccc(Nc2nc(-c3ccccc3)nc3ccccc23)cc1 | inconclusive: 10 µM [quencher, side channel, partial curve]
Cc1ccc2nc(-c3ccc(NC(=O)COC(=O)c4ccc([N+](=O)[O-])o4)cc3)sc2c1 | inconclusive: 7.94 µM [quencher, side channel, partial curve]
Cc1ccc(-c2cccc(NC(=O)C3C(C(=O)O)[C@@H]4C=C[C@H]3C4)c2)o1 (stereo not given in full) | inactive
Cc1nnsc1S(=O)c1ccc(Cl)cc1 (stereo not given) | inconclusive: 39.8 µM [quencher, side channel, partial curve]
c1ccc2c(c1)OCCc1c-2[nH]c2ccccc12 | inconclusive: 11.2 µM [quencher, side channel, partial curve]
O=C(c1ccccc1)c1coc2c1C(=O)c1ccccc1C2=O | inconclusive: 11.2 µM [quencher, side channel, partial curve]
c1csc(CN2CCOCC2)c1 | inactive
Cc1noc(C)c1S(=O)(=O)Nc1ccc(C(=O)Nc2ccc(OC(F)(F)F)cc2)cc1 | inconclusive: 8.91 µM [quencher, single point]
Cc1ccc(C(=O)Nc2ccccc2C(=O)O)cc1S(=O)(=O)NCc1ccccc1 | inconclusive: 28.2 µM [quencher, side channel, partial curve]
Cc1ccc(NCc2ccc(O)c3ncccc23)cc1 | inconclusive: 39.8 µM [fluorescent, partial curve]
Cc1ccc(C(=O)N2N=C(c3ccccc3O)CC2c2ccccc2)cc1 (stereo not given) | inconclusive: 22.4 µM [fluorescent, side channel, partial curve]
COc1cc2cc(-c3ccc(O)cc3O)nc(C)c2cc1OC | inconclusive: 12.6 µM [quencher, side channel, partial curve]
COc1ccc(C(=O)c2ccc(Br)cc2)cc1 | inconclusive: 0.708 µM [fluorescent, side channel, full curve, poor fit]
NC1=NC(=O)/C(=C\c2cc([N+](=O)[O-])ccc2Cl)S1 | inconclusive: 22.4 µM [quencher, partial curve, poor fit]
C/C(=N\NC(=O)c1cccc(S(=O)(=O)Nc2ccccc2Cl)c1)c1ccco1 | inconclusive: 20 µM [quencher, side channel, single point]
Cc1ccc(C2C3=C(CC(C)(C)CC3=O)OC3=C2C(=O)CC(C)(C)C3)cc1 | inconclusive: 14.1 µM [fluorescent, side channel, partial curve]
CCN(CC)c1ccc2c(-c3ccc(S(=O)(=O)O)cc3S(=O)(=O)[O-])c3ccc(=[N+](CC)CC)cc-3oc2c1 | inconclusive: 1 µM [fluorescent, side channel, full curve, poor fit]
COc1ccc(NC(=O)CSc2nc3c([nH]c4ccccc43)c(=O)n2C)cc1 | inconclusive: 22.4 µM [inhibitor, single point]

SMILES | Potency
COc1ccc(C)cc1Nc1n[n+](-c2ccccc2)c(-c2cccc(Cl)c2Cl)s1 | inactive
COc1ccc(NS(=O)(=O)c2cccc(C(=O)Nc3ccccc3C(=O)O)c2)cc1 | inconclusive: 22.4 µM [quencher, side channel, partial curve]
CNC(=O)C1CCN(S(=O)(=O)c2c(C)noc2/C=C/c2ccc(C)cc2)CC1 | inconclusive: 39.8 µM [fluorescent, side channel, single point]
O/C(=C\c1ccc2ccccc2n1)c1ccc(O)cc1O | inconclusive: 28.2 µM [quencher, side channel, partial curve]
CN1CCSc2ccc(C(=O)NCc3cccc(Br)c3)cc21 | inconclusive: 31.6 µM [quencher, side channel, single point]
O=C(c1cc2ccccc2o1)N1CCN(c2ccccc2Cl)CC1 | inconclusive: 15.8 µM [fluorescent, side channel, partial curve]
CCCOc1ccc(C(=O)NNC(=S)NC(=O)c2ccccc2[N+](=O)[O-])cc1 | inconclusive: 22.4 µM [quencher, side channel, single point]
CCc1ccccc1N(C(=O)c1ccco1)C(C(=O)NC1CCCC1)c1cccnc1 (stereo not given) | inconclusive: 22.4 µM [inhibitor, partial curve]
Cc1cc(C)c2c(N)c(C(=O)Nc3ccccc3F)sc2n1 | inconclusive: 39.8 µM [inhibitor, single point]
Cc1ccc(SCc2ccc(C(=O)N3CCCC3)cc2)cc1 | inconclusive: 12.6 µM [fluorescent, side channel, partial curve]
Cc1csc2nc(CSc3nncn3-c3ccccc3)c(Br)n12 | inconclusive: 39.8 µM [fluorescent, side channel, single point]
C=CCn1c(SC)nc2sc3c(c2c1=O)CCc1ccccc1-3 | inconclusive: 7.08 µM [inhibitor, partial curve]
COc1ccc(CNC(=O)Cn2ccc([N+](=O)[O-])n2)cc1OC | inconclusive: 39.8 µM [inhibitor, single point]
C/C(=N\NC(=O)c1ccc(-c2ccccc2)cc1)C1C(=O)c2ccccc2C1=O | inconclusive: 11.2 µM [fluorescent, side channel, partial curve]
COC(=O)C1=CN(c2ccc(OC)cc2)C=C(C(=O)OC)C1c1ccc([N+](=O)[O-])cc1 | inconclusive: 7.08 µM [inhibitor, partial curve]
C/C(=N\Nc1ccc(S(N)(=O)=O)cc1[N+](=O)[O-])c1cccs1 | inconclusive: 28.2 µM [quencher, side channel, partial curve]
COc1ccc(/C(C)=N/NC(=O)C2C3CCCCC32)c(OC)c1 (stereo not given) | inconclusive: 8.91 µM [fluorescent, side channel, single point]
O=C1OCCN1C(=O)[C@H]1[C@H](c2ccc([N+](=O)[O-])cc2)C(c2cccc(Cl)c2)=NN1c1ccccc1 | inconclusive: 3.98 µM [quencher, side channel, full curve] and inconclusive: 2.51 µM [quencher, side channel, full curve]
Clc1ccc(OCCCCN2CCc3ccccc3C2)cc1 | inconclusive: 20 µM [fluorescent, side channel, single point]
C=CCSC1=N/C(=C\c2ccc(C)o2)C(=O)S1 | inconclusive: 11.2 µM [quencher, side channel, partial curve, poor fit]
O=S(=O)(N/N=C/c1ccc(OC2CSC2)cc1)c1ccccc1 | inconclusive: 7.08 µM [quencher, side channel, full curve]
OCCC1CN(Cc2ccc(F)cc2)CCN1CCc1ccccc1 (stereo not given) | inactive
CCn1c(/C=C2/C(=O)N(C)c3ccccc32)nc2ccccc2c1=O | inconclusive: 3.16 µM [inhibitor, partial curve]
CCc1ccccc1NC(=O)C1CCCN1C(=O)NCc1ccccc1 (stereo not given) | inconclusive: 39.8 µM [quencher, side channel, single point]
NC1=NC(=O)/C(=C/c2c(OS(=O)(=O)c3ccc(Cl)cc3)ccc3ccccc23)S1 | inconclusive: 25.1 µM [inhibitor, single point]
CO[C@H]1COC(=O)C/C=C\[C@H](C)[C@@H](NS(=O)(=O)c2ccc(C)cc2)COC(=O)C/C=C\[C@@H]1C | inconclusive: 0.1 µM [inhibitor, full curve]
Clc1cccc(Cl)c1/C=N\Nc1nccs1 | inconclusive: 11.2 µM [quencher, side channel, partial curve]
